Screen size: about 310,000 compounds; about 18,000 (5.8%) were called active. The shares of active, inactive and inconclusive entries below differ from those in the screen. The call rests on the fitted dose curve; in most records, active means well fitted inhibition curve with a large enough effect; inconclusive means small, poorly fitted or top-dose-only effect, or another doubt; inactive means no such curve, though single readings can be large or run the other way. Potencies of inconclusive entries are left out as doubtful fits.
Assay: Primary qHTS for delayed death inhibitors of the malarial parasite plastid, 48 hour incubation
Details: P. falciparum luciferase growth in erythrocytes; series mostly up to 28.7 µM
How it was run: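 Luciferase-expressing parasites in RBCs, 2% Hct / 0.1% parasitemia final; RPMI 1640 + 0.5% Albumax; 37 C, 5% CO2, one generation; luminescence read-out, lower signal = inhibition.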
Potency means the concentration at half of the fitted maximal effect; tags describe the fitted curve by direction and shape.

Compound	Potency
C/C=C/C=[N+](\[O-])C(C)/C(=N/O)c1ccc(F)cc1 (stereo not drawn)	inactive
CCCCN(CC)CCNC(=O)c1ccc2c(Cl)c3c(nc2c1)CCC3	inconclusive [inhibitor, single point]
O=C(CSc1ccc2nnc(-c3ccccn3)n2n1)Nc1nccs1	inconclusive [inhibitor, partial curve, poor fit]
Cc1ccc(C(=O)Nc2cc(C(F)(F)F)ccc2-n2cncn2)o1	inconclusive [inhibitor, single point]
Cc1ccc(C(=O)Nc2ccccc2C(=O)O)cc1NC(=O)COc1c(C)cccc1C	inconclusive [inhibitor, partial curve]
O=S(=O)(NCc1ccccc1F)NCc1ccccc1F	inactive
Cc1ccsc1C(=O)NCCC(c1ccccc1)c1ccccc1	inconclusive [inhibitor, single point]
CCOCCCNS(=O)(=O)c1ccc(NC(=O)Cc2c(F)cccc2Cl)cc1	inconclusive [inhibitor, full curve, poor fit]
Cc1c(-n2c(SCC(=O)O)nnc2-c2ccccc2Br)c(=O)n(-c2ccccc2)n1C	inactive
O=C(Nc1cccc(S(=O)(=O)NCc2ccco2)c1)c1cc(-c2ccccc2)nc2ccccc12	inactive
CCCc1cc(=O)[nH]c(SCc2nc3ccc([N+](=O)[O-])cc3[nH]2)n1	inconclusive [inhibitor, single point]
CC(C)n1nc(C(=O)N2CCN(S(=O)(=O)c3cccs3)CC2)c2ccccc2c1=O	inconclusive [inhibitor, partial curve, poor fit]
CCCNCc1cc(OCC)c(OCC(=O)Nc2ccccc2)cc1Br	inconclusive [inhibitor, single point]
O=C(O)CCCCCCCCCC(=O)c1cccs1	inactive
Cc1ccsc1C1Nc2ccc3ncccc3c2C2=C1C(=O)CC(C)(C)C2 (stereo not drawn)	active: 1.65 µM
O=C(Nc1cccc(C(=O)O)c1)/C(=C\c1ccc2c(c1)OCO2)NC(=O)c1ccccc1Cl	inconclusive [inhibitor, partial curve, poor fit]
Cc1ccc(NC(=O)C(C)OC(=O)/C=C/c2ccccc2)cc1S(=O)(=O)N1CCOCC1 (stereo not drawn)	inconclusive [inhibitor, single point]
Cc1ccc(NC2=NC3(CCCCC3)N=C(N)N2)c(C)c1	inconclusive [inhibitor, partial curve]
O=C(N1CCCC1)C12CC3CC(CC(C3)C1)C2	active: 11.7 µM
CN(CC(=O)NC(=O)NC1CCCCC1)CC(=O)Nc1ccc(Cl)cc1	inconclusive [inhibitor, single point]
O=C(NCCNc1nccc(C(F)(F)F)n1)c1cccs1	inconclusive [inhibitor, single point]
O=C(NC1CCCCCC1)C1Cc2ccccc2CN1C(=O)c1ccco1 (stereo not drawn)	inactive

Compound	Potency
O=[N+]([O-])c1ccccc1S(=O)(=O)n1cnc2ccccc21	inactive
O=C(NCCc1ccc(O)c(O)c1)C1COc2ccccc2O1 (stereo not drawn)	inconclusive [inhibitor, single point]
CCn1cc(C(=O)N2CCc3ccccc32)c(=O)c2cc(S(=O)(=O)N3CCOCC3)ccc21	inconclusive [inhibitor, partial curve, poor fit]
COc1cc(CCC(=O)N2CCN(c3ccc([N+](=O)[O-])cc3)CC2)cc(OC)c1OC	inconclusive [inhibitor, partial curve, poor fit]
Oc1ccc2oc3c(c2c1C=NCc1ccncc1)CCCC3	inconclusive [inhibitor, single point]
CC(=O)Nc1ccc(N(C(=O)c2ccco2)C(C(=O)NC2CCCC2)c2ccc(N3CCOCC3)cc2)cc1 (stereo not drawn)	inconclusive [inhibitor, partial curve]
COc1cccc(CC(=O)Nc2cc(C(F)(F)F)ccc2N2CCCC2)c1	inconclusive [inhibitor, single point]
O=S(=O)(c1cccc(-c2cn3cccnc3n2)c1)N1CCCCCC1	inconclusive [inhibitor, single point]
Cc1onc(-c2ccccc2Cl)c1C(=O)OCC(=O)Nc1ccc2c(c1)OCO2	inconclusive [inhibitor, partial curve]
O=C(NNC1CC(=O)N(c2cccc(Cl)c2)C1=O)c1cccs1 (stereo not drawn)	inactive
CCOC(=O)n1cc(-c2cnc(CNC(=O)C(C)(c3ccccc3)c3ccccc3)o2)c2ccccc21	inconclusive [inhibitor, partial curve]
CN(C)N1C(N)=C(C#N)C(c2ccc(Br)cc2)C2=C1CCCC2=O (stereo not drawn)	inconclusive [inhibitor, partial curve]
CCCN(CC(=O)Nc1ccc(F)c(F)c1F)C(=O)c1ccc(=O)n(Cc2ccccc2)n1	inconclusive [inhibitor, partial curve, poor fit]
COc1ccccc1CN1C(=NC(=O)C2CCCCC2)SC2CS(=O)(=O)CC21 (stereo not drawn)	inactive
COc1ccc(Cl)cc1C(=O)NCC#N	inactive
Oc1c(C=Nc2ccccc2)sc2ccccc12	inconclusive [inhibitor, partial curve, poor fit]
O=C(CCC1N=C2c3ccccc3N=C(SCc3ccc(F)cc3)N2C1=O)NCc1ccco1 (stereo not drawn)	inconclusive [inhibitor, single point]
Cc1ccc(SCC(=O)Nc2cccc(-c3nnc(-c4ccco4)o3)c2)cc1	inactive
Cc1nn(C(=O)c2ccco2)c(C)c1Sc1ccccc1	inconclusive [inhibitor, single point]
CCCCC(=O)Nc1nn(CCC)c2nc3ccccc3cc12	active: 11.7 µM
COc1ccc2[nH]c(=O)c(CN(C(=O)c3cccnc3)c3ccc(C)cc3C)cc2c1	inconclusive [inhibitor, single point]

From PubChem BioAssay AID504832 (National Center for Advancing Translational Sciences (NCATS), 2011)
